# Reference: the supplement of paper PMC11417369
# The other results are listed elsewhere or left out.
# Tested on: PF3D7_0420300 AP2 domain 1 (GST-tagged)
# Assay: gcPBM binding intensity (ln(normalized median fluorescence intensity)); higher = stronger DNA binding
# Outline: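 Binding intensity is defined as the maximum Masliner-normalised natural-log median intensity across replicate spots for either probe orientation. It was measured on an Agilent 4 × 180k array of primer-extended double-stranded 36-bp intergenic genomic probes and negative controls, to which GST-tagged P. falciparum DNA-binding domains made in E. coli were applied for 1 h in 1× PBS with 1% milk, 0.2 mg/ml BSA, 0.5% salmon testes DNA and 0.03% Triton X-100. Detection was by Alexa488 anti-GST antibody and scanning at 488 nm.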
row,Sequence,gcPBM binding intensity (ln)
1,AACAATGGATTATTCACACATAAAAAAATTCACATT [CACACA_site5437],9.29
2,AATACCTATGGAATTAATAATATGTGTACAGACACA [TGCATGCA_negctrl_site547],9.24
3,AAAAAAATATATATATGTACATAACTTTGTTGTGAT [XGTACX_site5243],9.32
4,TGTTAAATTATTTATCAGATTATTATTTGTAAATAA [CACACA_negctrl_site1535],8.74
5,TTTGAACATTTTGCAAGTACAAAAAAATAATATATC [XGTACX_site8079],9.08
6,AAGAAAAGCATAGATGCACACATATATATATATATA [CACACA_site8675],9.58
7,GGAACTTAAAAAAAATGTACTTATAAAAAAGGAAAT [XGTACX_site8186],9.17
8,AACATGCAAACATGCACACAGAAAAAAAAAATATAT [CACACA_site1565],9.51
9,TTACACATACATATGTGGGAAAATATTGCTACATAT [CACACA_negctrl_site463],9.36
10,AAAAATGGTGTTAACACACACATATAAATAAATATA [CACACA_site6412],9.33
11,AAGGATCACCCACAAACACACATATATATATATATA [CACACA_site559],9.76
12,TAAATGTGAAATTTTATATTTTATATAATATACAAT [CACACA_negctrl_site76],8.88
13,AACATAAGTAATATTTGTACATATATAATAATATAT [XGTACX_site5123],9.31
14,ATCATATTTTTATGTGTGCACTTTTTTTTTTTTTTT [GTGCAC_site9555],9.54
15,CTCTTATACATATTCCTGCACTTATTTTTAAAAACA [GTGCAC_site9620],9.36
16,AAGAAAAATAATTAGGGTGAAAATATATAGAGTAAA [TGCATGCA_negctrl_site590],9.39
17,ACACATATATATATATATATATATATATATATATAT [CACACA_negctrl_site1766],9
18,CAATTCTTAAGTTCTTGTACGAAAAACGACAATTTA [XGTACX_site3890],8.81
19,TATTATATAAAATATTTTATTATATCATCTTCTCTA [XGTACX_negctrl_site319],9.04
20,GGTAATAATATGCATAGTACATAATATATATATATA [XGTACX_site6793],9.28
21,ATAATATAAATAATTATACACACTTAATATATATAT [CACACA_site2782],9.36
22,GTATGTATGTATGTATGTACGTATTTATTTATTTAA [XGTACX_site726],9.24
23,CACAAAAATTTATACACACACATATAAAATATAGAT [CACACA_site6218],9.93
24,TTCACTATACAAAGGTGTACTTAATTTTGTCCCATT [XGTACX_site7483],9.29
